{"source": "PubChem BioAssay", "key": {"[1]": {"assay": "viability of HCT116 without oncogenic beta-catenin – human colon tumor cells, pilot screen (AID 823;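 active = cell viability at or below a set limit in both duplicate runs, the limit being the all-compound median minus 4 SD, cut at about 23% in these data, passing the limit was not always enough; inconclusive = no clear call, values can overlap the other calls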;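 note: 0% = wells killed by 20 µM Hyamine and 100% = untreated DMSO cell wells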)", "conditions": "HCT116 beta-catenin knockout viability, CellTiter-Glo, 60 h; at 10 µM; stronger effect = lower value"}, "[2]": {"assay": "RAM pathway blockade in budding yeast – dse1pr::URA3 reporter, 5-FOA selection, pilot screen (AID 869;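 active = inhibition over a set limit, the all-compound mean plus 3 SD, in both replicate runs; inconclusive = over that limit in just one replicate run; inactive = at or under that limit in both runs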;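 note: 0% = DMSO wells with no growth and 100% = 10 µM 1-NA-PP1 with full growth; RAM network block rescues cells from 5-FOA so hits raise OD615 growth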)", "conditions": "S. cerevisiae dse1pr::URA3 5-FOA growth, OD615, 2 d; at 10 µM; stronger effect = higher value; strain carries analog-sensitive mutant Cbk1 kinase"}, "[3]": {"assay": "RAM signaling pathway blockade in yeast – S. cerevisiae, Pdr1DBD-CYC8 efflux-inhibited sensitized strain, primary screen (AID 1298);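 note: 0% = DMSO untreated cells without growth and 100% = 10 µM 1-NA-PP1 full growth; higher means more yeast growth rescued from 5-FOA killing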", "conditions": "S. cerevisiae cbk1-as DSE1-URA3 strain, 5-FOA growth OD615, 2 d; at 50 µM; stronger effect = higher value"}, "[4]": {"assay": "viability of PTEN-null HCT116 cells – cell-based, HCT116 clonal line, CellTiter-Glo, pilot screen (AID 824;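 active = viability at or below 27.92% in each of two runs, the all-compound median minus 4 SD; inconclusive = no clear call, values can overlap the other calls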;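 note: 0% = 20 µM Hyamine control and 100% = vehicle cell control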)", "conditions": "HCT116 PTEN-deleted viability, 60 h, at 10 µM, stronger effect = lower value"}}, "note": "The inconclusive results got no clear call from the source; some entries with a clear call stand among them for comparison. The source made the active and inactive calls.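 Rule for the calls, unless noted: active = RAM network inhibition above 8.4% in each of two replicates, 3 SD over the compound average; inconclusive = above 8.4% inhibition in only one replicate; inactive = 8.4% inhibition or less in each replicate.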"}
{"smiles": "C(#Cc1ccccc1)CN1CCN(c2ccccn2)CC1", "values": [{"measurement": "viability", "setting": "[1]", "value": "inactive: 98.3%"}, {"measurement": "inhibition", "setting": "[2]", "value": "inconclusive: 3.78%"}, {"measurement": "RAM network inhibition", "setting": "[3]", "value": "inconclusive: 17.9%"}]}
{"smiles": "Cc1ccccc1S(=O)(=O)Cc1ccc(C(=O)N2CC(C)CC(C)C2)o1", "note": "(stereo not drawn)", "values": [{"measurement": "viability", "setting": "[4]", "value": "inactive: 90.2%"}, {"measurement": "RAM network inhibition", "setting": "[3]", "value": "inconclusive: 9.51%"}]}
{"smiles": "CCOC(=O)c1ccc(NC(=O)c2ccc(C)c(S(=O)(=O)N3CCOCC3)c2)cc1", "values": [{"measurement": "viability", "setting": "[1]", "value": "active: 12.8%"}, {"measurement": "viability", "setting": "[4]", "value": "inconclusive: 23.6%"}, {"measurement": "RAM network inhibition", "setting": "[3]", "value": "inconclusive: 12.2%"}]}
{"smiles": "COc1ccc(OC)c(NC(=O)CN(c2ccc(C(C)C)cc2)S(=O)(=O)c2c(C)noc2C)c1", "values": [{"measurement": "viability", "setting": "[4]", "value": "inactive: 48.1%"}, {"measurement": "RAM network inhibition", "setting": "[3]", "value": "inconclusive: 9.77%"}]}
{"smiles": "Cn1c(Cn2c(=O)sc3ccccc32)nnc1SCc1ccc(F)cc1", "values": [{"measurement": "viability", "setting": "[1]", "value": "active: 23.7%"}, {"measurement": "viability", "setting": "[4]", "value": "inconclusive: 26.3%"}, {"measurement": "RAM network inhibition", "setting": "[3]", "value": "active: 16.2%"}]}
{"smiles": "O=C(OCC(=O)N1CCN(C(=O)c2ccco2)CC1)C1=COCCO1", "values": [{"measurement": "viability", "setting": "[4]", "value": "inconclusive: 106%"}, {"measurement": "RAM network inhibition", "setting": "[3]", "value": "inactive: 3.69%"}]}
{"smiles": "CCN1C(=S)SC(=O)C1=C1C=C(C)OC(C)=C1", "values": [{"measurement": "viability", "setting": "[4]", "value": "inconclusive: 85.1%"}, {"measurement": "RAM network inhibition", "setting": "[3]", "value": "inactive: 5.1%"}]}
{"smiles": "Cc1ccc(-c2nc3cnccn3c2Nc2ccc3c(c2)OCCO3)o1", "values": [{"measurement": "viability", "setting": "[4]", "value": "inconclusive: 85.8%"}, {"measurement": "RAM network inhibition", "setting": "[3]", "value": "inconclusive: 15.9%"}]}
{"smiles": "C(=C\\c1ccccc1)/CN1CCN(c2ncnc3c2oc2ccccc23)CC1", "values": [{"measurement": "viability", "setting": "[1]", "value": "inconclusive: 44.8%"}, {"measurement": "viability", "setting": "[4]", "value": "inconclusive: 71.9%"}, {"measurement": "RAM network inhibition", "setting": "[3]", "value": "inconclusive: 11.3%"}]}
{"smiles": "CCC1(C)Cc2ccccc2-c2nc3n(c(=O)c21)CCCCC3", "note": "(stereo not drawn)", "values": [{"measurement": "viability", "setting": "[4]", "value": "inconclusive: 83.6%"}, {"measurement": "RAM network inhibition", "setting": "[3]", "value": "inconclusive: 16.2%"}]}
{"smiles": "CCOc1ccc(CN2CCNC(=O)C2CC(=O)OC)cc1", "note": "(stereo not drawn)", "values": [{"measurement": "viability", "setting": "[4]", "value": "inactive: 102%"}, {"measurement": "RAM network inhibition", "setting": "[3]", "value": "inconclusive: 11.2%"}]}
{"smiles": "O=C(CNC(=O)Cn1ccc2ccccc2c1=O)NCCCN1CCN(c2cccc(Cl)c2)CC1", "values": [{"measurement": "viability", "setting": "[4]", "value": "inconclusive: 71.2%"}, {"measurement": "RAM network inhibition", "setting": "[3]", "value": "inactive: 2.03%"}]}
{"smiles": "COc1cc2[nH]c(=O)n(Cc3ccc(C(=O)NCC4CCCO4)cc3)c(=O)c2cc1OC", "note": "(stereo not drawn)", "values": [{"measurement": "viability", "setting": "[1]", "value": "inactive: 90.2%"}, {"measurement": "viability", "setting": "[4]", "value": "inconclusive: 98.3%"}, {"measurement": "inhibition", "setting": "[2]", "value": "inactive: 3.56%"}, {"measurement": "RAM network inhibition", "setting": "[3]", "value": "inconclusive: 10.5%"}]}
{"smiles": "COc1ccc(N(CC(=O)NCCSc2ccccn2)S(C)(=O)=O)cc1Cl", "values": [{"measurement": "viability", "setting": "[1]", "value": "inconclusive: 106%"}, {"measurement": "viability", "setting": "[4]", "value": "inactive: 97.3%"}, {"measurement": "RAM network inhibition", "setting": "[3]", "value": "inconclusive: 8.58%"}]}
{"smiles": "Cc1cc(C)nc(SCC(=O)c2ccc(O)cc2O)n1", "values": [{"measurement": "viability", "setting": "[4]", "value": "inactive: 99.4%"}, {"measurement": "RAM network inhibition", "setting": "[3]", "value": "inactive: -1.2%"}]}
{"smiles": "CCOC(=O)C1=C(N)OC2=C(C(=O)CC(C)(C)C2)C1C1CCCCC1", "note": "(stereo not drawn)", "values": [{"measurement": "viability", "setting": "[4]", "value": "inactive: 92.9%"}, {"measurement": "RAM network inhibition", "setting": "[3]", "value": "inconclusive: 9.69%"}]}
{"smiles": "O=C(CCCOc1ccccc1)Nc1nnc(C2CCCO2)s1", "note": "(stereo not drawn)", "values": [{"measurement": "viability", "setting": "[4]", "value": "inconclusive: 98.6%"}, {"measurement": "RAM network inhibition", "setting": "[3]", "value": "inactive: 8.72%"}]}
{"smiles": "CC1(C)CC(=O)C(C=NC2CC(C)(C)NC(C)(C)C2)=C(O)C1", "values": [{"measurement": "viability", "setting": "[1]", "value": "inconclusive: 101%"}, {"measurement": "viability", "setting": "[4]", "value": "inactive: 95.5%"}, {"measurement": "RAM network inhibition", "setting": "[3]", "value": "inactive: 4.6%"}]}
{"smiles": "COC(=O)c1ccc(NCC(=O)c2ccccc2)cc1", "values": [{"measurement": "viability", "setting": "[4]", "value": "inconclusive: 106%"}, {"measurement": "RAM network inhibition", "setting": "[3]", "value": "inactive: 3.96%"}]}
{"smiles": "Cc1cc(C)n(-c2nc3ccccc3nc2Nc2ccc3c(c2)OCO3)n1", "values": [{"measurement": "inhibition", "setting": "[2]", "value": "active: 6.39%"}, {"measurement": "RAM network inhibition", "setting": "[3]", "value": "inconclusive: 11.9%"}]}
